Test results as given in the supplement of paper PMC10126150.
Values marked as one replicate rest on one cluster of the flow cell; about a third of the high ones do not repeat.

tested on: ATP; test: switch fluorescence ratio, 500 uM ATP over buffer (Cy3 cluster intensity, sum of 5 cycles each) (fold (ratio)); higher = stronger signal-on switching upon ATP binding; sequences stand for … in TCGTCGGCAGCGTCAGATGTGTATAAGAGACAGTTTTTTTTTTTTTTTTTTTTTTTTT…TC; conditions: aptamer strand: ATP DNA aptamer (quencher-CACCTGGGGGAGTATTGCGGAGGAAGG + anchor), 100 nM annealed; ATP concentration: 500 uM; one replicate
Outline: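 Per cluster, summed Cy3 intensity from the target cycles was divided by that from the buffer cycles to give the fluorescence ratio, then averaged per switch-domain sequence. Clusters outside 100-1000 RFU were excluded. The Cy3-labelled switching-strand clusters, on a modified Illumina MiSeq flow-cell, were annealed to 100 nM quencher-labelled ATP aptamer and imaged in selection buffer, then after 15 min with 500 uM ATP at 22 °C, for five cycles with NaOH stripping and re-annealing between them.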
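Note: ATP exposure 15 min at 22 °C before imaging.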

Sequence	switch fluorescence ratio
TATGCTAATT	0.987
TATGCTTAGC	1
TATGGATA	1.01
TATGGCAGGC	1.17
TATGGCCCAT	1.01
TATGGGACTA	1.01
TATGGGAGCC	1.05
TATGGGGTGC	1.04
TATGGGTCC	1.02
TATGGTCGGA	0.96
TATGTATCAC	1.06
TATGTATTC	0.999
TATGTATTCG	1.06
TATGTCGTTC	0.966
TATGTCTGCA	1.02
TATGTGCGTC	1.03
TATGTGCTCC	1.02
TATGTGGACG	0.989
TATGTGGCTT	1.06
TATGTGTATG	1.02
TATGTGTGAA	0.944
TATGTGTGGC	1.05
TATGTTAAG	0.987
TATGTTCTCC	1.03
TATGTTTGTT	0.994
TATTAACCTC	1.01

Sequence	switch fluorescence ratio
TATTAATACT	0.935
TATTAATGGG	1.04
TATTACGTA	1.2
TATTACGTAG	1.04
TATTAGGAAT	0.999
TATTAGGCTA	1.03
TATTAGTCCC	1.03
TATTAGTTAT	1.02
TATTATCTGA	1.04
TATTATGCAG	1.04
TATTATTTAT	0.985
TATTCAGGG	1.01
TATTCGCACG	1.03
TATTCGCGGA	0.981
TATTCGGCAT	1.01
TATTCTTGAT	0.986
TATTCTTGTT	0.95
TATTGATC	1.02
TATTGCCTCA	0.942
TATTGCGCAC	1.12
TATTGGCGGA	1.05
TATTGGCTAG	0.993
TATTGGCTGC	1
TATTGGGCA	0.996
TATTGGTCCT	0.959
TATTGTACCC	1.04

Sequence	switch fluorescence ratio
TATTGTACGC	0.986
TATTTAAATA	1.03
TATTTAAGTC	1.04
TATTTACTCA	1.04
TATTTCAGCC	0.975
TATTTCTAA	1.01
TATTTCTATC	1.01
TATTTGAGAT	0.998
TATTTGAGGA	1.02
TATTTGCAC	0.988
TATTTGGCAG	0.973
TATTTGTGCA	1.02
TATTTTGAGC	1.02
TATTTTGGT	1
TCAAAAAGTA	0.992
TCAAAAATAG	1.02
TCAAACACCT	1.35
TCAAACCGTT	1.04
TCAAACTAGA	0.955
TCAAATACAA	1
TCAAATACCT	1.27
TCAAATCGT	1.02
TCAAATTTGC	0.957
TCAACAGGGC	1.05
TCAACCTGTT	0.999
TCAACGAGGC	1.02

Sequence	switch fluorescence ratio
TCAACGCTGT	1.08
TCAACGTGTT	0.968
TCAACTAGAG	0.991
TCAAGATAAG	1.02
TCAAGCAGGT	1.02
TCAAGCTGGT	1.02
TCAAGGAGTG	0.997
TCAAGGTAGT	1.47
TCAAGTCTAT	1.15
TCAAGTGAAC	0.991
TCAAGTTTCT	0.999
TCAAGTTTGA	1
TCAATAGGGA	0.981
TCAATATATT	0.977
TCAATCGCCG	1.01
TCAATGCGGC	0.965
TCACAAGGAG	0.971
TCACACGTTA	1.23
TCACATAGAA	0.994
TCACCAAGAT	1.08
TCACCAGTCG	1.05
TCACCCTTTG	1.04
TCACCGGCTA	1.07
TCACCTCTCG	1.09
TCACGAGTCA	0.969
TCACGATCCA	1.02

Sequence	switch fluorescence ratio
TCACGCAGTA	1.08
TCACGCGCAA	3.05
TCACGGGGAA	1
TCACGGTGAG	0.967
TCACGTCAGG	1.06
TCACGTGCGG	0.989
TCACTCGGTG	1.01
TCACTGGCAC	1.24
TCACTGGGAT	1.01
TCACTTAACG	1.17
TCACTTTCTT	0.964
TCAGACT	0.999
TCAGACTCGT	0.968
TCAGACTTTT	0.965
TCAGAGGATA	1.04
TCAGCAACA	1.25
TCAGCATCTG	1.03
TCAGCCTCAA	1.46
TCAGCTTACG	1.07
TCAGGATGC	0.963
TCAGGCGTCC	0.974
TCAGGCTGCT	1.02
TCAGGGAT	1.21
TCAGGTCAAA	1.02
TCAGGTCAGC	0.996
TCAGTACTA	1.02

Sequence	switch fluorescence ratio
TCAGTCGTAC	1.04
TCAGTCTGAG	0.99
TCAGTGAACC	1.11
TCAGTGCTTC	1.03
TCAGTGGCGA	1.03
TCAGTTAAGA	0.996
TCATAACCT	1.85
TCATAACCTG	1.05
TCATACGCAC	4.04
TCATACTGGG	0.991
TCATATCCTG	1
TCATCAAGAT	1.01
TCATCAGGCG	0.998
TCATCCACTT	1.11
TCATCTCTGT	1
TCATCTGGG	1.03
TCATGAAACG	0.999
TCATGAAGAA	1.4
TCATGAGTCT	0.979
TCATGATTCA	0.994
TCATGGATTG	1
TCATGGGGAT	0.991
TCATGTGGTG	0.959
TCATTAAAAG	1.01
TCATTACAAG	0.986
TCATTCATAG	0.996

Sequence	switch fluorescence ratio
TCATTCTACG	1.06
TCATTGCATG	1.03
TCATTGCGG	0.998
TCATTTCAAC	1.03
TCATTTGGGC	0.976
TCATTTTCGA	0.979
TCCAACTCGC	1.11
TCCAAGGTAG	1.05
TCCAATGCTC	2.55
TCCAATTAGC	1.04
TCCACGGCAT	2.51
TCCACTAGAA	0.996
TCCACTCTCT	0.98
TCCACTTAGA	0.988
TCCACTTTA	1.05
TCCAGCCAGT	1.01
TCCAGCGACG	1.03
TCCAGGTTT	1.4
TCCAGTATAA	1.03
TCCAGTCAGA	1.03
TCCAGTCGC	1.05
TCCAGTTTGC	1.01
TCCATAAAAG	1
TCCATACGGT	0.984
TCCATAGTGT	1.02
TCCATATGAT	1

Sequence	switch fluorescence ratio
TCCATCCCGA	1.15
TCCATGAGTC	1.01
TCCATTCTTA	0.991
TCCCACATTT	1.01
TCCCAGATGC	1.18
TCCCAGCGAA	1.82
TCCCAGGCGT	1.03
TCCCATTGGG	1.03
TCCCCAAAAG	1.1
TCCCCACATG	1.04
TCCCCAGTAG	1.16
TCCCCCCCGA	1.12
TCCCCGATGG	1.3
TCCCCGGCAC	1.02
TCCCCGGGGA	1.29
TCCCGCAAGT	2.28
TCCCGGAGCT	2.75
TCCCGGGTGA	1.02
TCCCGTGAAA	1.03
